Reference: the supplement of paper PMC3334620
Over roughly 33,000 sequences, “E-score (-0.5 to 0.5)” has its median near -0.012; the highest 2% begin near 0.29. The list shows a part of the results.

Biological target: T1, Ybr033w (UniProt P38073)
T1 sequence: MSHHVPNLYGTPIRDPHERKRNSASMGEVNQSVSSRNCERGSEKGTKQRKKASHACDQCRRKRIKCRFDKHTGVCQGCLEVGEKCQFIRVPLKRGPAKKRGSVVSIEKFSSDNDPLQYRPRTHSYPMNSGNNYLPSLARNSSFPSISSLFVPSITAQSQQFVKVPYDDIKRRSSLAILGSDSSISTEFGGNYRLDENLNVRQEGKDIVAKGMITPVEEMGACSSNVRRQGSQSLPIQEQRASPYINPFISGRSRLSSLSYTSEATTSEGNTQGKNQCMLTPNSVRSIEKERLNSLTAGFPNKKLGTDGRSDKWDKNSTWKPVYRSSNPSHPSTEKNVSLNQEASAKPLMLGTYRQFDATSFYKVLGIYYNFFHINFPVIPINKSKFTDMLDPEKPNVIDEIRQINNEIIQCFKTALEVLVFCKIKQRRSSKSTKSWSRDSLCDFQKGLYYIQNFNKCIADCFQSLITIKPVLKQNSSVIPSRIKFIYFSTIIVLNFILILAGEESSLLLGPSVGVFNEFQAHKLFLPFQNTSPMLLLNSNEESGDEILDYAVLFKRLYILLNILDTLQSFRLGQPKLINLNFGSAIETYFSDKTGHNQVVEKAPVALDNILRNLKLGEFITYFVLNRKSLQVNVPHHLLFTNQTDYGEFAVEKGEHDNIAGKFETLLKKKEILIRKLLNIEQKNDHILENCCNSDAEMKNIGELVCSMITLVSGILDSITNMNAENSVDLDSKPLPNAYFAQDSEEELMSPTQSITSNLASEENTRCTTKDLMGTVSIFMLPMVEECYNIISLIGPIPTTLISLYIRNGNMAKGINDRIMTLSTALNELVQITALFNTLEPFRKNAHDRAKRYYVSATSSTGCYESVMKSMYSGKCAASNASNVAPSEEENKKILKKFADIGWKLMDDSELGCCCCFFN
Test: PBM E-score (8-mer binding enrichment) (E-score (-0.5 to 0.5)); higher = stronger / more preferred TF binding; most listed sequences are background and not binding sites
Conditions: protein concentration: 200 nM; construct: GST-full length
How it was run: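 PURExpress in vitro transcription/translation supplied GST-tagged yeast transcription factors, either full-length or DNA-binding domain. Applied at about 100-200 nM to universal all-10-mer Agilent arrays double-stranded by primer extension, the bound protein was detected with fluorescent anti-GST. E-scores, modified Wilcoxon-Mann-Whitney statistics, were given by the Universal PBM Analysis Suite to ungapped eight-base words pooled with their reverse complements after masliner normalisation.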

Point of comparison: ACCAGCTG, “PBM E-score” value -0.205. Against it:
- TGATGGCA — lower, -0.24
- CACTATCG — higher, -0.0448
- ATGATTGC — higher, 0.175
- AGCTTCGG — higher, 0.0048
- GCTGCTTA — higher, -0.125
- GACTAACC — higher, -0.0392
- ACATAGTG — higher, 0.191
- CCAATTGG — higher, 0.103
- CCGTTTTA — higher, -0.0216
- GACAAGTA — higher, 0.0958
- ACAAACCG — higher, -0.0213
- CGCTCGAA — higher, 0.0449
- AGGTCCTG — higher, -0.167
- AGAGCTTC — higher, -0.0853
- AAACCACA — higher, 0.0692
- ACGAAACG — higher, 0.0443
- TAGATAAA — higher, 0.341
- GGTGGATA — higher, -0.00985
- CACTCAAC — higher, 0.0471
- GATACTGC — higher, 0.125
- CACCGGGG — lower, -0.306
- ATCTGAAA — higher, 0.196
- AGACGTCC — higher, -0.167
- CCCTGTAG — higher, -0.202
- CCCACAAC — higher, -0.108
- CGGTGGGA — higher, -0.152
- AAAACTCT — higher, 0.00352
- CACTCGCA — higher, -0.00609
- ATAGGCCA — higher, -0.0319
- AGCGTGCA — higher, 0.0865
- ATTCACTG — higher, 0.0466
- CTAATGGC — higher, -0.0296
- ACCGGGCG — lower, -0.29
- ATGGTTTC — higher, 0.11
- CAATTGGA — higher, 0.0629
- AGTACTGA — higher, 0.132
- ATGCTAGC — higher, 0.0574
- ACTATCAG — higher, 0.0153
- CAGACCGC — higher, -0.151
- AATCAGTC — higher, 0.0532
- AGATCTCG — higher, 0.00759
- CCAAAAAC — higher, 0.132
- CACATTCA — higher, 0.138
- AAGCAAGA — higher, 0.119
- ACCATTGA — higher, 0.103
- CTTATAGA — higher, 0.132
- GACAATCC — higher, 0.0412
- TAAGTCAA — higher, 0.0786
- GTATCGTA — higher, 0.164
- TCGACCGA — higher, -0.0438
- ACCACGCC — lower, -0.281
- GCCTACGA — higher, 0.0389
- CAACCCCC — lower, -0.338
- CGGCCCGA — lower, -0.245
- CAAGTCCA — higher, 0.0229
- CAACACGA — higher, 0.0587
- CGAATAAG — higher, -0.0119
- AACGCAAG — higher, -0.0608
- AGTACGAC — higher, -0.00212
- AGCCATTC — higher, -0.143
- CTTGTCAA — higher, 0.0361
- AATAATAT — higher, 0.388
- AGGAGAAG — higher, -0.0165
- GACATCTA — higher, 0.0843
- CACGTGTA — higher, -0.0937
- CCACATGG — higher, -0.15
- CGAGGCCG — lower, -0.301
- AAGTCTGA — higher, -0.179
- CTAGGGAC — higher, -0.151
- GTGTCTCA — higher, -0.0927
- CACAGAAC — higher, -0.115
- CAGCCATA — higher, -0.122
- GAGGTCCA — lower, -0.261
- CAAACTGG — higher, -0.114
- GCAGTAGC — higher, -0.176
- AACGAATA — higher, 0.00039
- CACCCTCG — higher, -0.134
- ACGGGGAT — higher, -0.105
- CTTGGGTC — lower, -0.271
- AGGCAATA — higher, -0.0405
- TTGGAAAA — higher, 0.298
- TCGAGTAA — higher, 0.165
- AGCTGTTG — higher, 0.0239
- ATGAGAAG — higher, -0.0312
- AGGCGCCT — lower, -0.244
- ACGCGAGC — higher, 0.0484
- GCTGTGCA — higher, -0.17
- GGCAGGCC — lower, -0.276
- CCCCCCGC — lower, -0.378
- GGCCAGCA — lower, -0.225
- CAAAGGTG — higher, -0.104
- CCATCAGC — higher, -0.0471
- CCCAATCC — higher, -0.135
- GGAGACAA — higher, -0.00399
- CCAGGTTC — lower, -0.269
- AATCCTAT — higher, 0.251
- GCGACCCA — lower, -0.277
- CTTTCCTC — higher, -0.0593
- AGAGGATA — higher, 0.0706
- GTTCCGGA — higher, 0.214
- CCTGCCAG — higher, -0.2
- ACGTTCCG — higher, -0.118
- AGTGGTAC — higher, -0.0555
- ATGATCCG — higher, 0.412
- AAAACGAC — higher, -0.059
- ATGCAGCG — higher, -0.107
- AGAATAGG — higher, 0.228
- AGCTTCGC — lower, -0.21
- TATTGTGA — higher, 0.105
- AAAGACTA — higher, -0.116
- CGTCCTAG — higher, -0.0647
- CCCCATCA — higher, -0.143
- CAGCTATC — higher, -0.0703
- ATCTAATA — higher, 0.266
- CGTAGATC — higher, -0.0069
- ACTAGACA — higher, 0.119
- ATCCCCAT — higher, -0.14
- CCGTACGC — lower, -0.283
- ATGTATGC — higher, 0.254
- GCGGGAGC — lower, -0.293
- AAGCCGGT — higher, -0.053
- CAAGGGAG — higher, -0.12
- GGATATTA — higher, 0.144
- ACCTTACG — higher, 0.022
- CAACTCAG — higher, -0.106
- AGATGCAT — higher, -0.00621
- ATGGCTAG — higher, -0.0576
- CATGATGC — higher, 0.00494
- ATAGCTTA — higher, 0.0381
- AACGTCGG — higher, -0.0284
- GCAGCCCC — lower, -0.309
- ATGGCGCG — higher, -0.0534
- CGTGTGCC — higher, -0.174
- AGGAGACC — lower, -0.278
- CCGTGCGC — lower, -0.22
- TCGACAAA — higher, 0.209
- GCTAGCCC — lower, -0.211
- ATTTTCAG — higher, 0.148
- GGTAAGAA — higher, -0.0975
- ATCCTCTA — higher, 0.0223
- AGTAATGC — higher, 0.0861
- AACCGAGA — higher, 0.138
- ATTCGTAG — higher, 0.0286
- GTAAACCA — higher, 0.114
- CTAGCGGA — higher, -0.118
- CACGCGGG — lower, -0.242
- CGAGGCTC — lower, -0.219
- CTCCCCAC — higher, -0.114
- ACGTATTC — higher, -0.0366
- AACGCTGG — higher, -0.0678
- AGCCGAAT — higher, -0.0347
- GCTTCGCC — lower, -0.273
- CCTTATCG — higher, 0.158
- AGGTACGC — higher, -0.0892
- ACTTGCGG — higher, -0.195
- AAGTCAGG — higher, -0.0306
- TACGTACA — higher, 0.116
- CGCTAGGC — lower, -0.217
- GGCCCCAA — higher, -0.197
- CATATCAA — higher, 0.24
- CAGGTATA — higher, -0.0294
- AAGATAGA — higher, 0.103
- ATCCAGAG — higher, 0.137
- AGTCAGCG — higher, -0.193
- GAACCACC — higher, 0.0199
- GTGCAAAA — higher, 0.0387
- CTTGACGC — higher, -0.0854
- TCGCAAGA — higher, -0.203
- TCCCCTAA — lower, -0.208
- ACTGCTGC — higher, -0.0794
- GTCGGAGA — higher, 0.0825
